Measured values reported in the supplement of paper PMC4967469.

Columns and labels:
Experiment in all cases: Viability of human cancer cell lines after 72 h of drug (GDSC screen)
[1] = compound: COc1cc(N2CCC(O)CC2)ccc1Nc1cc(Nc2ccccc2S(=O)(=O)C(C)C)c2cc[nH]c2n1 [MPS-1-IN-1]; conditions: top dose 20 µM; top dose inferred
Description: (§1)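 Human cancer cell lines in 384-well plates, medium with 10% serum, drug for 72 h over a 256-fold dose range (nine 2-fold or five 4-fold steps up to the top dose). Adherent lines were fixed and stained with the nucleic acid dye Syto60, suspension lines read with resazurin; signal relative to control wells, capped at 0 and 100%. One two-parameter sigmoid per drug and line, fitted in a mixed model over all curves with the slope shared within a line.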

[2] = compound: C[C@]1(c2nc3c(C(N)=O)cccc3[nH]2)CCCN1 [ABT-888]; conditions: top dose 5 µM; top dose inferred
Description: as §1

[3] = compound: Nc1ccn([C@@H]2O[C@H](CO)[C@@H](O)[C@@H]2O)c(=O)n1 [Cytarabine]; conditions: top dose 2 µM
Description: as §1

[4] = compound: COc1nc(C)cnc1NS(=O)(=O)c1cccnc1-c1ccc(-c2nnco2)cc1 [Zibotentan]; conditions: top dose 20 µM; top dose inferred
Description: as §1

[5] = compound: Cc1ccc(F)c(NC(=O)Nc2ccc(-c3cccc4[nH]nc(N)c34)cc2)c1 [ABT-869]; conditions: top dose 1.024 µM; top dose inferred
Description: as §1

[6] = compound: C/C=C(/C)C(=O)O[C@H]1C(C)=C2[C@H]([C@@H]1OC(=O)CCCCCCC)[C@@](C)(OC(C)=O)C[C@H](OC(=O)CCC)[C@@]1(O)[C@H]2OC(=O)[C@@]1(C)O [Thapsigargin]; conditions: top dose 0.512 µM; top dose inferred
Description: as §1

[7] = compound: CCn1c(-c2nonc2N)nc2cnc(Oc3cccc(NC(=O)c4ccc(OCCN5CCOCC5)cc4)c3)cc21 [GSK269962A]; conditions: top dose inferred
Description: as §1

[8] = compound: C=CC(=O)Nc1cc(-n2c(=O)ccc3cnc4ccc(-c5cn[nH]c5)cc4c32)ccc1C [QL-X-138]; conditions: top dose 10.24 µM; top dose inferred
Description: as §1

[9] = compound: Cc1cnc(-c2cnc(NCCNc3ccc(C#N)cn3)nc2-c2ccc(Cl)cc2Cl)[nH]1 [CHIR-99021]
Description: as §1

[10] = compound: COc1cc2ncnc(-n3nc(-c4ccccn4)nc3N)c2cc1OC [CP466722]; conditions: top dose 16 µM; top dose inferred
Description: as §1

[11] = compound: COc1cc(O)c2c(c1)/C=C/C[C@H](O)[C@H](O)C(=O)/C=C\C[C@H](C)OC2=O [(5Z)-7-Oxozeaenol]; conditions: top dose 10 µM; top dose inferred
Description: as §1

[12] = compound: O=c1cc(-c2cccc3c2Sc2ccccc2S3)oc(N2CCOCC2)c1 [KU-55933]; conditions: top dose 10 µM
Description: as §1

[13] = top dose 5 µM, screen: GDSC drug entry 1192
[14] = top dose 2.56 µM, screen: GDSC drug entry 154
[15] = top dose 10 µM, screen: GDSC drug entry 1241, top dose inferred
[16] = top dose 2.5 µM, screen: GDSC drug entry 127

Cell Line | AUC [1] | IC50 [1] | AUC [2] | IC50 [2] | AUC [3] | IC50 [3] | AUC [4] | IC50 [4] | AUC [5] | IC50 [5] | AUC [6] | IC50 [6] | AUC [7, 13] | IC50 [7, 13] | AUC [8] | IC50 [8] | AUC [9, 14] | IC50 [9, 14] | AUC [10] | IC50 [10] | AUC [9, 15] | IC50 [9, 15] | AUC [11] | IC50 [11] | AUC [12] | IC50 [12] | AUC [7, 16] | IC50 [7, 16]
A2058 (melanoma, adherent) | 0.954 | > 20000 nM | 0.964 | > 5000 nM | 0.57 | 190 nM | 0.99 | > 20000 nM | 0.99 | > 1020 nM | 0.161 | 3.46 nM | 0.879 | 4170 nM | 0.745 | 2940 nM | 0.98 | > 2560 nM | 0.898 | > 16000 nM | – | – | – | – | – | – | – | –
AN3-CA (endometrium, adherent) | 0.974 | > 20000 nM | 0.969 | > 5000 nM | 0.845 | 1650 nM | 0.983 | > 20000 nM | 0.839 | 795 nM | 0.169 | 2.78 nM | 0.682 | 1060 nM | 0.653 | 1780 nM | 0.963 | > 2560 nM | 0.86 | 15600 nM | 0.96 | > 10000 nM | 0.468 | 506 nM | – | – | – | –
BT-549 (breast, adherent) | – | – | 0.978 | > 5000 nM | 0.811 | 1630 nM | – | – | – | – | – | – | 0.539 | 417 nM | – | – | – | – | – | – | 0.902 | > 10000 nM | 0.623 | 1560 nM | – | – | – | –
DMS-53 (small cell lung carcinoma, adherent) | 0.988 | > 20000 nM | 0.988 | > 5000 nM | 0.915 | > 2000 nM | 0.987 | > 20000 nM | 0.982 | > 1020 nM | 0.664 | 94.6 nM | 0.984 | > 5000 nM | 0.988 | > 10200 nM | 0.988 | > 2560 nM | 0.975 | > 16000 nM | 0.982 | > 10000 nM | 0.795 | 5040 nM | – | – | – | –
Daoy (medulloblastoma, adherent) | 0.95 | > 20000 nM | 0.936 | > 5000 nM | 0.757 | 629 nM | 0.987 | > 20000 nM | 0.983 | > 1020 nM | 0.23 | 5.8 nM | 0.914 | > 5000 nM | 0.409 | 370 nM | 0.987 | > 2560 nM | 0.797 | 6780 nM | 0.878 | 8480 nM | 0.536 | 777 nM | – | – | – | –
EFM-19 (breast, adherent) | 0.942 | > 20000 nM | 0.977 | > 5000 nM | 0.8 | 1640 nM | 0.953 | > 20000 nM | 0.955 | > 1020 nM | – | – | 0.903 | > 5000 nM | 0.753 | 5170 nM | 0.891 | > 2560 nM | 0.741 | 7150 nM | 0.974 | > 10000 nM | 0.794 | 7610 nM | – | – | – | –
EPLC-272H (lung squamous cell carcinoma, adherent) | 0.793 | 10500 nM | 0.983 | > 5000 nM | 0.784 | 967 nM | 0.976 | > 20000 nM | 0.955 | > 1020 nM | 0.549 | 44.3 nM | 0.863 | > 5000 nM | 0.566 | 991 nM | – | – | 0.602 | 1970 nM | – | – | 0.322 | 185 nM | – | – | – | –
H2722 (mesothelioma, adherent) | 0.973 | > 20000 nM | 0.984 | > 5000 nM | 0.686 | 462 nM | 0.979 | > 20000 nM | 0.974 | > 1020 nM | 0.477 | 27.3 nM | 0.696 | 1240 nM | 0.869 | > 10200 nM | 0.865 | > 2560 nM | 0.871 | > 16000 nM | 0.838 | 8700 nM | 0.676 | 2140 nM | – | – | – | –
HCC70 (breast, adherent) | 0.974 | > 20000 nM | 0.965 | > 5000 nM | 0.94 | > 2000 nM | 0.964 | > 20000 nM | 0.984 | > 1020 nM | 0.456 | 24.3 nM | 0.987 | > 5000 nM | 0.792 | 4530 nM | 0.988 | > 2560 nM | 0.852 | 12000 nM | 0.981 | > 10000 nM | 0.803 | 4840 nM | – | – | – | –
HCC1395 (breast, adherent) | 0.979 | > 20000 nM | – | – | 0.854 | > 2000 nM | 0.982 | > 20000 nM | 0.984 | > 1020 nM | 0.279 | 6.54 nM | 0.892 | > 5000 nM | 0.926 | > 10200 nM | 0.893 | > 2560 nM | 0.96 | > 16000 nM | 0.918 | > 10000 nM | 0.827 | 7840 nM | 0.962 | > 10000 nM | – | –
HCC1937 (breast, adherent) | 0.942 | > 20000 nM | – | – | 0.811 | 1270 nM | 0.983 | > 20000 nM | 0.979 | > 1020 nM | 0.075 | < 2 nM | 0.971 | > 5000 nM | 0.639 | 1660 nM | 0.984 | > 2560 nM | 0.848 | 14800 nM | 0.925 | > 10000 nM | 0.823 | 7120 nM | 0.978 | > 10000 nM | – | –
HCC2998 (large intestine, adherent) | 0.947 | > 20000 nM | 0.988 | > 5000 nM | 0.708 | 472 nM | 0.988 | > 20000 nM | 0.988 | > 1020 nM | 0.134 | 2.36 nM | 0.987 | > 5000 nM | 0.882 | > 10200 nM | 0.97 | > 2560 nM | 0.927 | > 16000 nM | 0.983 | > 10000 nM | 0.526 | 736 nM | – | – | 0.967 | > 2500 nM

Lines with a small IC50 respond at low doses; where the fit passes the top or lowest dose, that dose stands as a limit. AUC, from the same fit, is the share of area under the viability curve across the 256-fold dose range; it is 1 without any effect and falls as sensitivity rises. For some assays here: Where the top dose is marked as inferred, it was calculated from the reported fits. For some assays here: An entry number marks a drug with two screens in the source, which often give different values.
